The target in one assay is Natalizumab. In words: SPR, Biacore 3000, CM5 chip, 25 C, Langmuir 1:1. For orientation: SPR reads the build-up and loss of mass on a sensor chip optically.
A further assay addresses T1, human IgG1-Fc (human, UniProt P01857-1 100-330 = IgG part).
T1 construct: domain: Fc; also called IgG-Fc
In words: SPR, Biacore 3000, CM5 chip, 25 C, Langmuir 1:1.

Changes are numbered by the printed parent chain. Names may count otherwise.

B1: Staphylococcus aureus Protein A domain C (other)
chain: ADNKFNKEQQNAFYEILHLPNLTEEQRNGFIQSLKDDPSVSKEILAEAKKLNDAQAPKWSHPQFEK
notes: also called wildtype domain C; wildtype Protein A domain C
By Kd is commonly meant a measure of binding affinity in units of concentration. Higher therefore signals a looser complex. As to B1, in the assay with Natalizumab, the dissociation constant Kd is 3.95 nM.

B2: cs27 (designed binder)
chain: IAAKFDEAQQAAFYEILHLPNLTEEQRNAFIQSLRDDPSVSLEVLGEAQKLNDSQAPKWSHPQFEK
B2: the Kd with Natalizumab was found to be 2.54 nM.

B3: cs26 (designed binder)
chain: B2 chain with K4Q, F5H, E7K, A8D, V44I, G46A, Q49K, S54A
In the assay with Natalizumab, B3 registered a Kd of 5.81 nM.

B4: cs26 A46C (designed binder)
chain: B2 chain with K4Q, F5H, E7K, A8D, V44I, G46C, Q49K, S54A
Molecule B4 registered a Kd with Natalizumab of 3 nM.

B5: cs27 G46C (designed binder)
chain: B2 chain with G46C
B5: the dissociation constant Kd in the assay with Natalizumab worked out at 0.302 nM.

B6: cs26 A46C (dimer) (designed binder)
chain: IAAQHDKDQQAAFYEILHLPNLTEEQRNAFIQSLRDDPSVSLEILCEAKKLNDAQAPKIAAQHDKDQQAAFYEILHLPNLTEEQRNAFIQSLRDDPSVSLEILCEAKKLNDAQAPKWSHPQFEK
B6 had a Kd with Natalizumab of 1.86 nM.

B7: cs26 A46C (trimer) (designed binder)
chain: IAAQHDKDQQAAFYEILHLPNLTEEQRNAFIQSLRDDPSVSLEILCEAKKLNDAQAPKIAAQHDKDQQAAFYEILHLPNLTEEQRNAFIQSLRDDPSVSLEILCEAKKLNDAQAPKIAAQHDKDQQAAFYEILHLPNLTEEQRNAFIQSLRDDPSVSLEILCEAKKLNDAQAPKWSHPQFEK
In turn, B7 showed an equilibrium dissociation constant (Kd) in the assay with Natalizumab of 1.98 nM.

B8: IB14 (designed binder)
chain: PAAKHDKDQQSAFYEILHLPNLTEDQRSAFIQSLKDDPSVSKEILGEAKKLNDAQAPPWSHPQFEK
In the assay with human IgG1-Fc, B8 showed a Kd of 1.28 nM.

B9: cs14 E43C (designed binder)
chain: B8 chain with P1I, S11A, S28N, K35R, K42L, E43C
B9 showed a Kd with Natalizumab of 0.302 nM.

B10: cs14 G46C (designed binder)
chain: B8 chain with P1I, S11A, S28N, K35R, K42L, G46C
In the assay with Natalizumab, B10 yielded a dissociation constant Kd of 3.38 nM.

B11: IB14 K50C (designed binder)
chain: B8 chain with K50C
Turning to B11, in the assay with human IgG1-Fc, the dissociation constant Kd worked out at 42.8 nM.

B12: cs14 (designed binder)
chain: B8 chain with P1I, S11A, S28N, K35R, K42L
With B12, the values for the dissociation constant (Kd) in the assay with human IgG1-Fc and in the assay with Natalizumab were 6.48 nM and 2.51 nM, respectively.

B13: IB14 G46C (designed binder)
chain: B8 chain with G46C
Molecule B13 yielded a Kd with human IgG1-Fc of 72.9 nM.

B14: IB14 E47C (designed binder)
chain: B8 chain with E47C
Turning to B14, the Kd in the assay with human IgG1-Fc worked out at 48.8 nM.

B15: IB14 E43C (designed binder)
chain: B8 chain with E43C
In turn, B15 yielded a Kd with human IgG1-Fc of 45.5 nM.

Source of the values: patent US20200238197A1 (REPLIGEN, published 2020).
